# Assay results: the supplement of paper PMC11417369
# The other results are listed elsewhere or left out.
# Tested on: PfHDP1 homeodomain (GST-tagged)
# Assay: gcPBM binding intensity (ln(normalized median fluorescence intensity)); higher = stronger DNA binding
# In short: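 The highest Masliner-normalised natural-log median intensity across replicate spots of either probe orientation is reported as binding intensity. GST-tagged P. falciparum DNA-binding domains expressed in E. coli were applied for 1 h to an Agilent 4 × 180k array of primer-extended double-stranded 36-bp intergenic genomic probes plus negative controls, and bound protein was detected with Alexa488 anti-GST antibody and scanned at 488 nm.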
row,Sequence,gcPBM binding intensity (ln)
1,ATATATATTTAAATGTGTACTCATTTATTTTATGTC [XGTACX_site4984],6.66
2,TTTTTTTTTTTTGTCACACATATATTTGTATTTATA [CACACA_site5234],6.5
3,TGATATTTATAATAAATATTATAATAAAATCAAACA [XGTACX_negctrl_site219],6.01
4,TGAAAAATGTTGATGTGTACTTATATAGTGTGTTAA [XGTACX_site2100],6.6
5,TAATTTTATATATGCACACAAAATATGTTCATATAA [CACACA_site4076],10.4
6,TTTAACATAAATTAAACACACAATATAATACATTAA [CACACA_site1237],6.42
7,AAATTACTTTCACAGTGTACTTGGAAAAAAAAAAGA [XGTACX_site1046],6.47
8,CATTTTATCAAAAGTGGTACAACCCTTTCAAAAAAT [XGTACX_site341],5.93
9,TTTTTTTTTTTTTTTTGTACGTAATATATGATTAAT [XGTACX_site6876],6.32
10,AGATATAATAAATATACACACATATATATATATATA [CACACA_site962],9.35
11,AAAAAAATCACATAAAATACTTTATTTTATATTATA [GTGCAC_negctrl_site372],5.76
12,TATAAATATGTTCTTACACACACGAATATAAATATG [CACACA_site7537],6.58
13,TTACATAATATATGTACACACGCAAATACTTATAAT [CACACA_site7995],6.74
14,TATATTTCTTATTTCTTATTTTGTCATCACCTTTTT [CACACA_negctrl_site1115],6.46
15,TATTTATTTTTTTGCACACATATTTTACATTTTAAT [CACACA_site3181],10.8
16,TATATATATATATATACACACATATATATATTTATA [CACACA_site627],9.33
17,ATAACATTCATATTCACACAAAAATATACTACATAG [CACACA_site4529],6.8
18,TGTAGTCTGGAGAAACGTACATAGTATCTGGTAACC [XGTACX_site4939],6.32
19,ATAAAAAAAGGACACACACACATATATATATATATA [CACACA_site5662],9.46
20,ATATAAAAAGTGTATCGTACATTTACTTATTTTATA [XGTACX_site6249],6.27
21,ATTGAAAATTGTTGCACACATAATAATTAAATATAT [CACACA_site1857],9.56
22,CACACCCACAAAAACACACACAAAGGTGTTCTTATA [CACACA_site1293],6.61
23,CTTTTTTTCCATTAAGCATGCACATTCATATTTACT [TGCATGCA_site170],8.41

row,Sequence,gcPBM binding intensity (ln)
1,ATATATATATATATATGTACATATGTTAATCTGCAT [XGTACX_site1068],9.27
2,TATATATATATAGGTTGTACATTTTGATGTTTACGT [XGTACX_site5503],9.13
3,GTTTATTTATTATAATGTACATTAGTCTGAGGAGTT [XGTACX_site4035],7.19
4,TTTTATTTATATATAGTGCATATTATTATAAAACAA,8.66
5,TACTTTTTTTTTTTTTTTTTTTTTTTTTCCCTTTTT [CACACA_negctrl_site761],5.85
6,CCTTTTTTTTTTTTATGTACTAAAATAAAATTAGAA [XGTACX_site5956],6.14
7,TTTTTTTTGATAAGTTGTACAATGATATATATCCCT [XGTACX_site3560],6.42
8,TATATTTTATATTGGTGTACAATTTTTTTTTTTTTT [XGTACX_site4291],6.45
9,ATAGTTTAATTTATATGTACATATAATATTGATTTG [XGTACX_site7520],6.68
10,AAATATTTATATGTTACACACTGTTTATAACTTTCT [CACACA_site6752],6.34
11,ATAAATGACAGACACACACACAAAAAAAAAAAACAA [CACACA_site2626],6.49
12,ACCCTATCTGTAACTACACACCGCATATTGTTTACT [CACACA_site5661],7.2
13,TTTTTATCTTTGCTGTGTACATAAATAAAAATAACT [XGTACX_site7625],6.66
14,CTTCTGTAATTATCACGTACATATAATAATTAAAAT [XGTACX_site8973],6.65
15,TTGTGTTTGAAAAAATGTACATGTGTCTTACAACAA [XGTACX_site8371],6.32
16,TTATACAGATATTTAACACACATTTTATAAAGTGCC [CACACA_site4851],6.34
17,TTACGCGCTTATTACACACACATACAAATAAGGATT [CACACA_site3486],7.21
18,AAAAATAAAAAAAATACATGCAATGAAACATTTATT [TGCATGCA_site263],6.14
19,AACAAAATAAAAAAAACATGCAAGAATTCTTATATG [TGCATGCA_site714],6.53
20,ATTTGTATTGTATATGCACACATAGAACACTTTTTT [CACACA_site9373],9.69
21,TATATATATTTATGTACACACACACCGATAAATAAA [CACACA_site4404],7.22
22,TATAACATATGACACACACACATACATACACAAAAA [CACACA_site6935],7.23
23,ATAACAACCCAATGTTGTACATTTAAATATAACGTA [XGTACX_site7114],6.48

row,Sequence,gcPBM binding intensity (ln)
1,TTCTAAAATTATATAGTGCAATTATATTAATTTTTC,8.98
2,TTTTATACATAAATATGTACGTATATATAATGAATT [XGTACX_site1337],6.31
3,ACAATTTATATTATATGTACTTAAAAAGTTCGTAAA [XGTACX_site6421],6.09
4,GCCTCATCGTAGCAGTGTACGTTTTTTTTTTTTTTT [XGTACX_site8648],6.73
5,TAATAAATGGCTAGTTGTACAGAAATATAAATATTA [XGTACX_site4579],5.99
6,AGATTCAAAAATAAAACATGCAAAAATAAAACGTGC [TGCATGCA_site501],7.02
7,ATAAATAAAAACACAAAACAAAACAAAACAAAACAA [CACACA_negctrl_site1257],6.61
8,ATATATATTGTACTAGTGCATATATATACATATATT,8.57
9,TTTCATCTATATGAAACACACAAAGGAAAAAAAATT [CACACA_site7869],6.77
10,ATATATATAATATAATGTACATATATTTTATTTTTA [XGTACX_site3819],6.89
11,ACGTATTAGATAAATACACACACAAGCATATATTTT [CACACA_site9135],6.57
12,TAATGTATTATATTTAGTACATATAAAAATAATTTT [XGTACX_site6886],6.24
13,ATATATTAATTTAATTGTACGAATAAAAAAAAAAAA [XGTACX_site223],6.71
14,TATATACATTTATGTACACACACATATATGTATATT [CACACA_site8971],6.61
15,AAAGCACCCAAGAATACACACAAATATTATAAAAAA [CACACA_site111],6.66
16,AAAATTGTTATTTTATGTACTTATATTTATTTATTT [XGTACX_site3478],6
17,GTAGGATTTTCTTTTGTGCGCAATATAAAAAGAAAA [GTGCAC_site9514],7.6
18,AAAAGGTATGTTATACATAGATATGCACATATATGT [TGCATGCA_negctrl_site96],9.64
19,ATTAATATAAAAAGGTAAATGGATGTAATATATATA [XGTACX_negctrl_site2],7.03
20,TCGTAATTTTTTTTTATATATTAGGAATTTATAAAA [XGTACX_negctrl_site409],6.18
21,TAATACCATTGTCATGCATGCACATTATTACTCTAA [TGCATGCA_site160],7.97
22,ATATTATATTTCTTTTGTACATATTATATAATATAT [XGTACX_site7198],6.94
23,TTTTTTTTGTGTATTTGTACATAATATATATATATA [XGTACX_site7092],8.47

row,Sequence,gcPBM binding intensity (ln)
1,TGAAAAGGAAAATTTTGTACATATACATCAAGGATA [XGTACX_site656],6.38
2,TACATGAATAAACTTACACACACCCATGCATACATA [CACACA_site97],6.95
3,AAAAAAAAGAATTTACGTACTTATTATTTATATTTT [XGTACX_site5701],6.02
4,ACTTTTTATTTTTTACTATATATATATATATATATG [TGCATGCA_negctrl_site463],7.59
5,ACTAACATATATTCAACACACATATACCTTCAACCC [CACACA_site3011],6.86
6,TTTTACAAAGTATGATGTACAAGTATATATAAATAT [XGTACX_site2072],6.26
7,CCCATTTAATATTGAGTGCATTTAAATAAATGTATT,8.38
8,TATATATATATATACACACACACATATATATATATA [CACACA_site774],9.31
9,TTATTTTCAAAATGTTGTACACACAAAAAAAAAAAA [XGTACX_site3151],6.53
10,TTTTTTTTTTTTTTTGCATGCAGGTTTTTACCCCTT [TGCATGCA_site381],6.26
11,TATAACATTTTTTTCAAAATAGCTTTAGAAATAAAG [CACACA_negctrl_site718],5.83
12,ATTTATTTTTTACATTGTACATATTTATTCCTTTTA [XGTACX_site8028],6.81
13,ATATGTGGAAATAGAGCACACATATATATAATATAT [CACACA_site8194],6.95
14,TATGTATATATATAAAGTACGCAAATTTATAATAAG [XGTACX_site8744],6.78
15,TTTTTTTTCTTCAAGCGTACTTATTTGTAGAAAAAA [XGTACX_site1728],6.14
16,AAAATACACAACATATATATATATATATATATATAT [XGTACX_negctrl_site21],9.63
17,TTTTGTTTTAAAAGTACACACTTTTAATTAGATTTC [CACACA_site4788],6.15
18,TGATCAATGGATTTAACACACAAAAAAAAAAAAAAA [CACACA_site3845],6.1
19,TTAAAAGAAAATAACACACACAAAAAAAAAAAAAAA [CACACA_site2117],6.44
20,TAAGGACTAATATTTGAACACACATATAATATATAC [CACACA_site9325],6.46
